In article PMC9911399, “Two distinct binding modes provide the RNA-binding protein RbFox with extraordinary sequence specificity”:
Positions count from the first letter of the chain named. This is one part of the list.

T1: RBFOX1 RRM (Homo sapiens, UniProt Q9NWB1 109-208)
T1 sequence: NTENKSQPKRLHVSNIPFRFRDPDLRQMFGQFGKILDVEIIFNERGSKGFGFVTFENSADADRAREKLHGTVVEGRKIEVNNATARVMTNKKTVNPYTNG

B1: AAUCACG (DNA:RNA)
RNA: GGGAGACCGGAAUUCAGAUUGUCCAAUCACGUUAAAUCCCGUCGUAGCCACCA
DNA 1: CAATCTGAATTCCGGTCTCCC
DNA 2: TGGTGGCTACGACGGGATT
B2: CGCAUUA (DNA:RNA)
RNA: GGGAGACCGGAAUUCAGAUUGUCCCGCAUUAUUAAAUCCCGUCGUAGCCACCA
DNA 1: CAATCTGAATTCCGGTCTCCC
DNA 2: TGGTGGCTACGACGGGATT
B3: UGUGUUU (DNA:RNA)
RNA: B2 RNA with C25U, C27U, A28G, A31U
DNA 1: CAATCTGAATTCCGGTCTCCC
DNA 2: TGGTGGCTACGACGGGATT
B4: ACAAUUA (DNA:RNA)
RNA: B2 RNA with C25A, G26C, C27A
DNA 1: CAATCTGAATTCCGGTCTCCC
DNA 2: TGGTGGCTACGACGGGATT
B5: UACAGAU (DNA:RNA)
RNA: B2 RNA with C25U, G26A, U29G, U30A, A31U
DNA 1: CAATCTGAATTCCGGTCTCCC
DNA 2: TGGTGGCTACGACGGGATT
B6: UACGGGG (DNA:RNA)
RNA: B1 RNA with A25U, U27C, C28G, A29G, C30G
DNA 1: CAATCTGAATTCCGGTCTCCC
DNA 2: TGGTGGCTACGACGGGATT
B7: AAUGGCA (DNA:RNA)
RNA: B1 RNA with C28G, A29G, G31A
DNA 1: CAATCTGAATTCCGGTCTCCC
DNA 2: TGGTGGCTACGACGGGATT
B8: CGGUUCA (DNA:RNA)
RNA: B2 RNA with C27G, A28U, U30C
DNA 1: CAATCTGAATTCCGGTCTCCC
DNA 2: TGGTGGCTACGACGGGATT
B9: UGUGCUG (DNA:RNA)
RNA: B1 RNA with A25U, A26G, C28G, A29C, C30U
DNA 1: CAATCTGAATTCCGGTCTCCC
DNA 2: TGGTGGCTACGACGGGATT

These binders were tested against T1, RBFOX1 RRM (assay: EMSA; HiTS-Eq, 1 nM pool, 10 min; buffer printed only for the single-RNA assays: 10 mM Tris pH 7.5, 150 mM NaCl, 3.4 mM EDTA, 0.001% NP-40, 30 C). Conditions: tags: His6 N-terminal (pET28a); label: 5' 32P.
In short: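 Purified RbFox RRM, wild type or mutant, was incubated for 10 min in 50 µL with 1 nM of a 5′-radiolabelled RNA pool carrying 7 randomized nucleotides, whose flanks were annealed to DNA oligonucleotides, over a series of increasing protein concentrations. Unbound RNA was resolved on 8% native PAGE, cut out, reverse-transcribed, barcoded by PCR and sequenced on an Illumina HiSeq 2500. Relative association constants were derived from changes in read counts for each RNA species versus the control reaction and normalised to the cognate motif.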

Binder	binding signal
B1	0.00439 KA relative to UGCAUGU
B2	0.00767 KA relative to UGCAUGU
B3	0.0186 KA relative to UGCAUGU
B4	0.00191 KA relative to UGCAUGU
B5	0.00698 KA relative to UGCAUGU
B6	0.00332 KA relative to UGCAUGU
B7	0.0117 KA relative to UGCAUGU
B8	0.00819 KA relative to UGCAUGU
B9	0.0301 KA relative to UGCAUGU
